In PubChem BioAssay AID1460 (National Center for Advancing Translational Sciences (NCATS), 2008):
Values joined by “and” are separate entries in the source; they are usually repeats but may differ in a detail not shown here. Identical values can stand only once. Out of some 270,000 compounds screened, about 5,800 (2.1%) were called active. Not shown: some 16% with an inconclusive outcome. Calls follow the shape of the dose curve; as a rule, active = well fitted inhibition curve with a large enough effect; inconclusive = small, poorly fitted or top-dose-only effect; inactive = flat fitted curve, though single readings scatter. Only a part is listed here, and it is no random draw. A structure can be active in one record and inactive in another.

Target: Microtubule-associated protein tau (Homo sapiens) (UniProt P10636)
Assay: qHTS for Inhibitors of Tau Fibril Formation, Thioflavin T Binding; also: nearly all actives have a fitted effect of over 55% in size
Conditions: recombinant tau K18 P301L (four-repeat tau fragment), heparin-induced fibrillization, ThT fluorescence; series mostly up to 57.4 µM; activity, negative = inhibition: at the top concentration
Description: NIH Molecular Libraries Probe Production Network [MLPCN]
NIH Chemical Genomics Center [NCGC]
Assay Provider: Carlo Ballatore, University of Pennsylvania
The microtubule-associated protein tau is an abundant protein in the axons of neurons that stabilizes microtubules. With its ability to modulate microtubule dynamics, tau contributes directly or indirectly, to key structural and regulatory cellular functions. Particularly important is the influence tau exerts on axonal transport, which allows signaling molecules, trophic factors and other essential cellular constituents to travel along the axons. Under pathological conditions, tau becomes sequestered into insoluble aggregates called neurofibrillary tangles. This phenomenon is believed to have pathological consequences by promoting axonal transport deficits that ultimately lead to synaptic dysfunction and neuronal loss. To identify inhibitors of tau aggregation, a heparin-induced tau fibril formation assay was used that employed a recombinantly expressed fragment of tau, K18 (Q242-E372), bearing a P301L mutation (Gustke et al. 1994; Hong et al. 1998). This assay monitors tau fibrillization by Thioflavin T (ThT) fluorescence.
Gustke, N., B. Trinczek, et al. (1994). "Domains of tau protein and interactions with microtubules." Biochemistry 33(32): 9511-22.
Hong, M., V. Zhukareva, et al. (1998).
Li, W. and V. M. Lee (2006).
von Bergen, M., S. Barghorn, et al. (2001). "Mutations of tau protein in frontotemporal dementia promote aggregation of paired helical filaments by enhancing local beta-structure." J Biol Chem 276(51): 48165-74.
NCGC Assay Protocol Summary:
For screening, 2 uL/well human K18 P301L (15 uM unlabeled and 0.24 uM Alexa 594-labeled tau, final concentrations) in reagent buffer (100 mM sodium acetate pH 7) was dispensed into black solid 1536-well plates (Grenier) using a solenoid-based dispenser. Following transfer of 23 nL compound or DMSO vehicle by a pin tool, 2 uL/well heparin (20 uM final concentration) in reagent buffer was added and the plate centrifuged 15 s at 1000 RPM. Plates were incubated 6 hr at 37 C and then 1 uL/well ThT (30 uM final concentration) was added. After a 1 hr ambient incubation, the plates were read by an Envision (Perkin Elmer) to monitor ThT fluorescence (450/8 nm excitation and 510/23 nm emission).
Keywords: NIH Roadmap, MLPCN, MLI, MLSMR, NCGC, qHTS, tau, tauopathies, Alzheimer's disease, fibril, neurodegeneration, aggregation
% is scaled to controls: 0 for no effect and ±100 for the full control effect; potency is read from the fitted curve at half-maximal effect.

UniProt P10636, sequence (P10636 whole entry, looked up): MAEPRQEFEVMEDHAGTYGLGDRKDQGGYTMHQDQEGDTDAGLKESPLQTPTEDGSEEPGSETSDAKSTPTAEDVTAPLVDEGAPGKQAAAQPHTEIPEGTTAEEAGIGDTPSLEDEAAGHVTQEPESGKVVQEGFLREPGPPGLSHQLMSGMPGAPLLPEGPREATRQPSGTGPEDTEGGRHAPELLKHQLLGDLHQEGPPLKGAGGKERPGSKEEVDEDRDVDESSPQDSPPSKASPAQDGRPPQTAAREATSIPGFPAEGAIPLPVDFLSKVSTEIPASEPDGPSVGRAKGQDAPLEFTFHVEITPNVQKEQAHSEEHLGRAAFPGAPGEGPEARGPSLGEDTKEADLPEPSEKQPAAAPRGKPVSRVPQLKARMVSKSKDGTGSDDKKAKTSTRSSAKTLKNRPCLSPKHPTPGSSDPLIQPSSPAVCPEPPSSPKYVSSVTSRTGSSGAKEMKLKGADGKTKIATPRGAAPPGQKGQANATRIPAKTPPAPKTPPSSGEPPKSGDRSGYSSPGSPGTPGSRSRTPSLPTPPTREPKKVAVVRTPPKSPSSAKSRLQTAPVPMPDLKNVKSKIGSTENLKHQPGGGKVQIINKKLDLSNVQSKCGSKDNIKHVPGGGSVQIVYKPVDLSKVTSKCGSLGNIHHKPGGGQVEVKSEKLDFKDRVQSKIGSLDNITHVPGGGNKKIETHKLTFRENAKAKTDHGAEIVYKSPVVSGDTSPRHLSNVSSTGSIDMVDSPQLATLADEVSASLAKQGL

Row | SMILES | Potency | activity, negative = inhibition
1 | COc1cc2cc(CN(Cc3nnnn3Cc3ccco3)C3CCCCC3)c(=O)[nH]c2cc1OC | active: 15.8 µM | –
2 | Cc1ccc(NC(=O)c2cccc(N(C)C)c2)cc1NC(=O)c1ccc(O)cc1 | – | inactive: 4.57%
3 | C[C@@H](C(=O)NCCc1c[nH]c2ccccc12)[C@@H]1C[C@@]1(C)[C@@H](NC(=O)OCc1ccccc1)c1ccccc1 | – | inactive: 17.2%
4 | COc1ccc(/C=C/C(=O)C2C(=O)C=C(C)OC2=O)cc1O (stereo not drawn) | active: 25.1 µM | –
5 | Cc1cc(C)c2c(=O)n(CC(=O)NC3CCCC3)sc2n1 | active: 12.6 µM | –
6 | COC(=O)[C@@H]1CC[C@H](C)[C@@H](c2ccc(C)cc2)N1C(=O)c1ccc(/C=N\OC[C@@H](O)COCc2ccco2)cc1 | – | inactive: -12.9% [at 11.5 µM]
7 | CC(C)=CCC/C(C)=C/CC/C(C)=C/CO | inactive | –
8 | CCCSc1nc(O)c(C(c2ccc(OC)c(O)c2)c2c(O)nc(SCCC)n(C)c2=O)c(=O)n1C | active: 3.98 µM | –
9 | CCOC(=O)c1c(-c2ccccc2)csc1NC(=O)c1cc(-c2cccc(OC)c2)on1 | active: 31.6 µM | –
10 | C=CC[n+]1c(-c2ccc(OCC)cc2)csc1NNC(=O)Nc1ccccc1 | active: 12.6 µM | –
11 | Cc1ccc(N=C2NC(=O)/C(=C/C=C/c3ccco3)S2)cc1 | active: 6.31 µM | –
12 | CC(=O)OC1C[C@]2(C)[C@@H](CC(O)C3[C@]4(C)CCC(O)C(C)[C@@H]4CC[C@]32C)/C1=C(/CCC=C(C)C)C(=O)O (stereo partly drawn) | – | inactive: -4.64%
13 | C=C1CC[C@H](O)C/C1=C/C=C1\CCC[C@]2(C)C([C@H](C)CCCC(C)(C)O)CC[C@@H]12 (stereo partly drawn) | – | inactive: -14.5%
14 | COC(=O)[C@@H]1CC[C@H](C)[C@@H](c2ccc(C)cc2)N1C(=O)c1ccc(/C=N\O[C@@H](C)c2cn([C@H]3COC[C@H]3O)nn2)cc1 | – | inactive: -1.54% [at 11.5 µM]
15 | Cc1cccc(OCC(=O)NC(Cc2c[nH]c3ccccc23)C(=O)O)c1C (stereo not drawn) | – | inactive: -13.9%
16 | COc1ccc(-n2cnc3cc(C(=O)NC4CCCC4)ccc32)cc1 | – | inactive: -9.05%
17 | C#C[C@]1(O)CC[C@H]2[C@@H]3CCc4cc(O)ccc4[C@H]3CC[C@@]21C | – | inactive: -17.4%
18 | C=CCCCCCCCCCCCC(O)CC(O)COC(C)=O (stereo not drawn) (tested in a mixture with another compound) | – | inactive: -19.1%
19 | O=C(Nc1ccc(Cl)cn1)c1ccc(-c2cc(Cl)ccc2Cl)o1 | active: 7.94 µM | –
20 | O=[N+]([O-])c1ccc(/C=N\N2CCN(c3ccc(Cl)cc3)CC2)cc1 | active: 2.24 µM | –
21 | CCOC(=O)c1cccnc1SCC(=O)N(CC)c1cccc(C)c1 | – | inactive: 3.1%
22 | CC1OC(n2cc(F)c(=O)[nH]c2=O)C(O)C1O (stereo not drawn) | – | inactive: 1.75%
23 | CN=c1scc(-c2ccc(F)cc2)n1/N=C/c1ccc(O)c(O)c1 | active: 10 µM | –
24 | Cc1ccccc1NC(=O)NCCc1c[nH]c2ccccc12 | – | inactive: -9.56%
25 | CCOc1ccc(N=C(/C(C(=O)C(=O)N2CCOCC2)=C(/O)c2ccccc2)c2ccccc2)cc1 | – | inactive: -14.9%
26 | COc1cc(/C=N/N2C(=O)CSC2=S)ccc1O | active: 14.1 µM | –
27 | CC(=C/c1ccc(C(C)C)cc1)/C=N/NC(=O)c1ccncc1 | – | inactive: -8.5%

Row | SMILES | Potency | activity, negative = inhibition
28 | CCOc1cccc(C(=O)Nc2ccc3oc(-c4cccnc4)nc3c2)c1 | – | inactive: -18.9%
29 | CC1=NN(c2nc(-c3ccc(C)cc3)cs2)C(=O)C1N=Nc1cccc(O)c1 (stereo not drawn) | active: 1.78 µM | –
30 | COC(=O)CCCC1=CC2=CC(=O)C(C)(OC(=O)c3cccs3)C(=O)C2=CN1Cc1ccccc1 (stereo not drawn) | – | inactive: 1.47% [at 11.5 µM]
31 | CCCCC1=CC2=C(c3ccco3)C(=O)C(C)(OC(=O)c3ccc(OC)cc3)C(=O)C2=CN1CCN1CCOCC1 (stereo not drawn) | – | inactive: -14.4% [at 11.5 µM]
32 | O=c1c(-c2ccc(O)cc2)coc2cc(O)ccc12 | inactive | –
33 | CCO[C@H]1OC(C(=O)N2CCN(Cc3ccc4c(c3)OCO4)CC2)=C[C@@H](C2CCCCC2)[C@@H]1CCCO | – | inactive: -8.22%
34 | COC(=O)/C=C1/N/C(=N\c2nc(C)cc(C)n2)N(c2ccccc2)C1=O | – | inactive: 4.34%
35 | COC(=O)c1ccc(CN2[C@H](C(=O)OC)C[C@@]3(O)[C@H](O)[C@H](O)[C@H](O)C[C@@H]23)cc1 | – | inactive: -5.43%
36 | O=C(c1ccc(Br)o1)N(Cc1ccccc1)Cc1ccccc1 | – | inactive: -20.1% [at 81.4 µM]
37 | COc1ccccc1NC(=O)Nc1nc(-c2cccnc2)nc2ccccc12 | – | inactive: -7.74%
38 | CC(=O)n1cc([C@H]2C=C(C(=O)Nc3ccccc3)O[C@@H](OCc3ccc(CO)cc3)C2)c2ccccc21 | – | inactive: -1.03%
39 | COc1cc(/C=C2/SC(=Nc3ccc(O)cc3)NC2=O)ccc1O | active: 4.47 µM | –
40 | CO[C@H]1COC(=O)[C@H](C)NC(=O)C/C=C\[C@@H](C)[C@H](OC)COC(=O)C/C=C\[C@@H]1C | – | inactive: -5.55% [at 11.5 µM]
41 | O=C1C[C@@H](O)[C@@H](O)[C@H]2[C@@H]3C(=O)N(C4CCCCC4)C(=O)[C@@H]3CC[C@H]12 | – | inactive: -0.0941% [at 11.5 µM] and inactive: -9.03% [at 11.5 µM]
42 | COc1ccc(NC(=O)c2ccc(Br)o2)cc1 | – | inactive: -4.08%
43 | C[C@@H](C(=O)NCc1ccc(S(C)(=O)=O)cc1)[C@@H]1C[C@@]1(C)[C@@H](NC(=O)OCc1ccccc1)c1ccccc1 | inactive | –
44 | O=c1[nH]c2cc(C(F)(F)F)ccc2n1-c1cc(C(F)(F)F)ccc1O | inactive | –
45 | COc1ccc2c(c1)O[C@H](c1ccc3c(c1)OCO3)[C@@H](OC(=O)N[C@H](C)C1CCCCC1)C2=O | inactive | –
46 | C/C(=C\c1ccccc1)C1NC(=O)c2c(sc3c2CCCC3)N1 (stereo not drawn) | active: 3.55 µM | –
47 | Cc1nn(-c2ccccc2)c2[nH]c(=O)c(CNc3ccc(N4CCOCC4)cc3)cc12 | active: 17.8 µM | –
48 | C1CCc2nnnn2CC1 | inactive | –
49 | C[C@@H](CCc1ccc(O)cc1)NCCc1ccc(O)c(O)c1 | – | inactive: -20.5%
50 | Cc1nnc(N/N=C/c2cc([N+](=O)[O-])c(N3CCC(C)CC3)cc2N2CCC(C)CC2)n1N | active: 17.8 µM | –
51 | CCCc1cc(=O)[nH]c(SCC(=O)N2CCN(c3ccccc3)CC2)n1 | – | inactive: -4.14%
52 | COc1ccc(-c2ccc3c(N)c(C(=O)c4ccc(OC)c(OC)c4)sc3n2)cc1 | – | inactive: -17.4%
53 | CC(=O)OCC(=O)C1CCC2C3CCC4=CC(=O)CC[C@@]4(C)C3CC[C@]12C (stereo partly drawn) | – | inactive: -13.9%
